No constants are given. Whether binding was seen depends on the method and setting. For some of these results: Binding seen in cells or lysates may run through a third protein. Some entries that bind do so weakly or less than the wild type. For some of these results: Where a sequence is shown, tags or fusion partners need not be part of it.

Protein sequences, listed by entry. Tags and fused reporters are not part of them.
UniProt Q8BXR5: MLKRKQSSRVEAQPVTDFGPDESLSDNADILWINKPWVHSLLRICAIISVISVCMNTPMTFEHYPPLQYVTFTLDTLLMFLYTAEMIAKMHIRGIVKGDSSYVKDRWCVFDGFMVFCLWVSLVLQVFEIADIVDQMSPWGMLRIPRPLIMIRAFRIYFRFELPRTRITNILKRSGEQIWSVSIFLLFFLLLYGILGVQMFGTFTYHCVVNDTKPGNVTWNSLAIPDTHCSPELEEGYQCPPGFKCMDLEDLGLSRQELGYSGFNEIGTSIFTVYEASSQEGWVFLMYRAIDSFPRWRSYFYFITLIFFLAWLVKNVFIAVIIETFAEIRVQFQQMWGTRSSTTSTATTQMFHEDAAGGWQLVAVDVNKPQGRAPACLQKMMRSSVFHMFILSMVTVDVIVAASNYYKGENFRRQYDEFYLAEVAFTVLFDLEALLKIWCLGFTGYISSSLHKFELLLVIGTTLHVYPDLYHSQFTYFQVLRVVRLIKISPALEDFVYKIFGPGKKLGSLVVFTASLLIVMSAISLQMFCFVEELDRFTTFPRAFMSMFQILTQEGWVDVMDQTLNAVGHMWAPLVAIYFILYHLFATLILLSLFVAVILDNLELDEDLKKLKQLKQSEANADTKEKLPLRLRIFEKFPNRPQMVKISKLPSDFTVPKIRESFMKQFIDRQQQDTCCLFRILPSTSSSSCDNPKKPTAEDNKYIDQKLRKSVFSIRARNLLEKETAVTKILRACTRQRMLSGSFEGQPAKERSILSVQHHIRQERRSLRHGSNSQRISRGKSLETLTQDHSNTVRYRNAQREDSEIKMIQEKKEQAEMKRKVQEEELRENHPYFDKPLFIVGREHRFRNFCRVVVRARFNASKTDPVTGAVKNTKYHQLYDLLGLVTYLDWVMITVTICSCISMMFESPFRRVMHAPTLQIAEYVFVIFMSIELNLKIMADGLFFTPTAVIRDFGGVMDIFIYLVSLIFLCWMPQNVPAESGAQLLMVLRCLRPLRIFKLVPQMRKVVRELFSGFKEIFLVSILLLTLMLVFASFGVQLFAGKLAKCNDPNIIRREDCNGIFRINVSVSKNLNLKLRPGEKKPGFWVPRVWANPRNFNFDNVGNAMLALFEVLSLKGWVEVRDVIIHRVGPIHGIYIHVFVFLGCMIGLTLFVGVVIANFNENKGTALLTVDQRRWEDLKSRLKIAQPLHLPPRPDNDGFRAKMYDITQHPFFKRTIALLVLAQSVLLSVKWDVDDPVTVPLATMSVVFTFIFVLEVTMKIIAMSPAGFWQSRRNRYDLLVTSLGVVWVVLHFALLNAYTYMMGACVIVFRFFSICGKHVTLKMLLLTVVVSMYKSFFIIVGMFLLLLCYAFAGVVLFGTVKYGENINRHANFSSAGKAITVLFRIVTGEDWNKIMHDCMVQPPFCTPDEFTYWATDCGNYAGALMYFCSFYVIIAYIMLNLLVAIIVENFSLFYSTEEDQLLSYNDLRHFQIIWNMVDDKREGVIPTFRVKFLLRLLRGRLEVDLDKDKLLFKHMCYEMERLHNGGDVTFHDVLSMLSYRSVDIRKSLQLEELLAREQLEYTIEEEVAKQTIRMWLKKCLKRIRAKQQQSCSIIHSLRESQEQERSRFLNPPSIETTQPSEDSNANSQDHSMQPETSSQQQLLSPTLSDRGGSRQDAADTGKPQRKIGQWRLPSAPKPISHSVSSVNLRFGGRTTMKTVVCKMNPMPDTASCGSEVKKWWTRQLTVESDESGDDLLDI
UniProt Q6Q760: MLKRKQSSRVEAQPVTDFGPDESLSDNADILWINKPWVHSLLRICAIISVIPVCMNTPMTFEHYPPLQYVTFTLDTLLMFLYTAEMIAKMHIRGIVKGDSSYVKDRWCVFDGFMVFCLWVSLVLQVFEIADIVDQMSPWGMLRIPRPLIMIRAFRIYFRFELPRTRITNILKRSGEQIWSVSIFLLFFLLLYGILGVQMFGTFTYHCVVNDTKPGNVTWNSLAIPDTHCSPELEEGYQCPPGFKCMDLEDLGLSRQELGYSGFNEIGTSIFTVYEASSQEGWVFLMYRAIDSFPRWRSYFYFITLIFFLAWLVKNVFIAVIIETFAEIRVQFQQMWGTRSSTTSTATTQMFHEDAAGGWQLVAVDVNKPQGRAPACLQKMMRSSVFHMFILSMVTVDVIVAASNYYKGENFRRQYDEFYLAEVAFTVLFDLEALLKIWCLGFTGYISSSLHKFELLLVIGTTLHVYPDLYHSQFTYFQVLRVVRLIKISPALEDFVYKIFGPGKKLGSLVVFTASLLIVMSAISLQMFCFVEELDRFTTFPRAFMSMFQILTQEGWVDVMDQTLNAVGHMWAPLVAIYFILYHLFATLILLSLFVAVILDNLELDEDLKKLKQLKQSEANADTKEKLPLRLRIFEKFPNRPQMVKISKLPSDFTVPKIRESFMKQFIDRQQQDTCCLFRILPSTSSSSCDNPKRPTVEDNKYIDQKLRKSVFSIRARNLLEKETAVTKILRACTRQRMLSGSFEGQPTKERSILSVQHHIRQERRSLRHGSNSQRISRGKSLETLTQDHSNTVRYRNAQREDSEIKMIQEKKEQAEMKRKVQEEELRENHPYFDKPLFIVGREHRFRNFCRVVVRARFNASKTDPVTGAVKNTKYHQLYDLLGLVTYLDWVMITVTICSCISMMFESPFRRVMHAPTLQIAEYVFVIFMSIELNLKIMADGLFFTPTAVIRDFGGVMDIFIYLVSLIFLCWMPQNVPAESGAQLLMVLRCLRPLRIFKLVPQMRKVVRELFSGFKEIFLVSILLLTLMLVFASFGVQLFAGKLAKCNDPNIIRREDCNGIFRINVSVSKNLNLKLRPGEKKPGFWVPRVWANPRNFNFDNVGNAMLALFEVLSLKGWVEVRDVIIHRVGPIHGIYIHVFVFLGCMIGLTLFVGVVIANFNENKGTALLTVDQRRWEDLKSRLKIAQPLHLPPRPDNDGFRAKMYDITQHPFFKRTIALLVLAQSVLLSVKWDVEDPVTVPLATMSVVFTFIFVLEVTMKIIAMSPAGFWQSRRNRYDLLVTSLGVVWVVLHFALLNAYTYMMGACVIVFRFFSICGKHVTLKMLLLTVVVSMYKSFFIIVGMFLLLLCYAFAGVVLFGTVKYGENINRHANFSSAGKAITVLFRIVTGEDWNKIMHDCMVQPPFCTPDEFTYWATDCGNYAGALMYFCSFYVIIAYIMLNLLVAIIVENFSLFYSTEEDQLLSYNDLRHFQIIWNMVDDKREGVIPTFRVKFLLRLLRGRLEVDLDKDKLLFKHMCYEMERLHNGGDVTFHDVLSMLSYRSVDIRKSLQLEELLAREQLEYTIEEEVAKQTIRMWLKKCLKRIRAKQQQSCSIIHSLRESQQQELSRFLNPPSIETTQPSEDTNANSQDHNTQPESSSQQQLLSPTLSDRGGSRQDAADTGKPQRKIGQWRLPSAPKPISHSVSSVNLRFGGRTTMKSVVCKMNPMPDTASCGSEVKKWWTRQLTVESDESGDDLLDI
UniProt Q0KK59: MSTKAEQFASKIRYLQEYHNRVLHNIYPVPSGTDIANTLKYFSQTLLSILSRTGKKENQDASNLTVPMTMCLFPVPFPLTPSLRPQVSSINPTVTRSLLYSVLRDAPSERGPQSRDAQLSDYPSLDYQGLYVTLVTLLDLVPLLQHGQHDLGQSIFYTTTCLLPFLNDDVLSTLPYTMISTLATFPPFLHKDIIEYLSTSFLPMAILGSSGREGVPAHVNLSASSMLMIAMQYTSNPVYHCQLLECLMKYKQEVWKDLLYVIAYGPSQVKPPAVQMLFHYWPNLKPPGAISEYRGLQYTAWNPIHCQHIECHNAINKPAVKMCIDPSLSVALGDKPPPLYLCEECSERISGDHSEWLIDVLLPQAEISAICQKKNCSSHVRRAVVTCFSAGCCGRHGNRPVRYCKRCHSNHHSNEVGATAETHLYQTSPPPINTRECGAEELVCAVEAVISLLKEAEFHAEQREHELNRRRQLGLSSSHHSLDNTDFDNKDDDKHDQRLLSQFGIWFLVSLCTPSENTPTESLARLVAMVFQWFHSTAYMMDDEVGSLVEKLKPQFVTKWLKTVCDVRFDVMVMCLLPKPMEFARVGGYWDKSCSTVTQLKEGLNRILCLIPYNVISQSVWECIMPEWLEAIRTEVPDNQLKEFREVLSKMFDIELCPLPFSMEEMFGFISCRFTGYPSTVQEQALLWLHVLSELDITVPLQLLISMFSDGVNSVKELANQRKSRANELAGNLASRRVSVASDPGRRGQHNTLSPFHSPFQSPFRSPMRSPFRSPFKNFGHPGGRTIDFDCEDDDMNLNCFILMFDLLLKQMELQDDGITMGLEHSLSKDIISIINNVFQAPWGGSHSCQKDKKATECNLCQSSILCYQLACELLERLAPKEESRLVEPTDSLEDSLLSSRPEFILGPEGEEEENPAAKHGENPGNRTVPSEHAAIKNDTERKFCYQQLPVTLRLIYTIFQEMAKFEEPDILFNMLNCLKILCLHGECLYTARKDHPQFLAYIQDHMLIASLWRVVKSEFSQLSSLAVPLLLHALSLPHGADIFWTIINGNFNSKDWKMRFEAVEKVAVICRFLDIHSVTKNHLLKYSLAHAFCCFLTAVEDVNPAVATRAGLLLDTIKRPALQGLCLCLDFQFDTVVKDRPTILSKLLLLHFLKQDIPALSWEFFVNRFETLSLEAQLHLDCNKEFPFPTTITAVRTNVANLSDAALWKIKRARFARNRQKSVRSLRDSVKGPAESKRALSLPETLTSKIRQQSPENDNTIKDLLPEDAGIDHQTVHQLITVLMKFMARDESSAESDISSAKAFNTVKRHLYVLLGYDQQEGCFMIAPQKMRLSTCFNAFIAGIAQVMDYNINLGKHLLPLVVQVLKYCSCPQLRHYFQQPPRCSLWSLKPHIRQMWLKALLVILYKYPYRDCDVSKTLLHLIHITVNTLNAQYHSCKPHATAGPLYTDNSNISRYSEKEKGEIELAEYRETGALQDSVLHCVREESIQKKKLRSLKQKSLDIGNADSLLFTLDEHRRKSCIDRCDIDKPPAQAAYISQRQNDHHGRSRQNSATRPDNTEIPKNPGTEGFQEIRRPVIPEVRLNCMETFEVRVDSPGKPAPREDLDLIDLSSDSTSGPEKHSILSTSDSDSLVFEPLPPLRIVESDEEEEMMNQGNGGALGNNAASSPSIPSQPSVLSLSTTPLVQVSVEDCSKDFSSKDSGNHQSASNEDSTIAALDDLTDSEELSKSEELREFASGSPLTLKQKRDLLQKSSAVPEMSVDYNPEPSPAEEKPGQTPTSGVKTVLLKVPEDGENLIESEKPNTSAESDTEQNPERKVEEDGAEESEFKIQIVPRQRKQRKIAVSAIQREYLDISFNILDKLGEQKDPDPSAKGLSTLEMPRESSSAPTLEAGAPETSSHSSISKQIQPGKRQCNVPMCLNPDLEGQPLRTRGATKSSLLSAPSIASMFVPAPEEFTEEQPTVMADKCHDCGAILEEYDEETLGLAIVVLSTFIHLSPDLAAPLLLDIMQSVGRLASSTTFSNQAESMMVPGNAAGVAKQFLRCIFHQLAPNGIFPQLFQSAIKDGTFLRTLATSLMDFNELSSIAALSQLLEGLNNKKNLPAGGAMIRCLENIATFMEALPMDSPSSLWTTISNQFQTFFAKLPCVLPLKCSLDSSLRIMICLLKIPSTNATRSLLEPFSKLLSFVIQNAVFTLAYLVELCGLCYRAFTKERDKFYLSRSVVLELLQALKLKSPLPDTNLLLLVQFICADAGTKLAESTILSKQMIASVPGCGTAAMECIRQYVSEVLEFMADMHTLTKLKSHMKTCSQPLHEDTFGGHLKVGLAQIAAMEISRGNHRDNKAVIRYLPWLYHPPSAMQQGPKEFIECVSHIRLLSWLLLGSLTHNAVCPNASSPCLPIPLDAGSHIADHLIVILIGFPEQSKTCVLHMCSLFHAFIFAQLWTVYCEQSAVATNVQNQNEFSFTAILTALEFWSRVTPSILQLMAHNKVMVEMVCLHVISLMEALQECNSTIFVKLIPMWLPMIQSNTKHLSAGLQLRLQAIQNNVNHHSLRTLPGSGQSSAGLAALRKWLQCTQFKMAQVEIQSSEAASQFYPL

The target of assay [1] is GFP-tagged full-length UNC80 (mouse) (mouse) (UniProt Q8BLN6). Briefly: co-IP; HEK293T co-transfected with NALCN or UNC79 and GFP-tagged UNC80 constructs; IP with anti-GFP, blot anti-NALCN or anti-UNC79; RIPA buffer (IP buffer with 0.5% deoxycholate and 0.1% SDS); 4 °C (Fig. 8a-c, f, g).
The target in assay [2] is GFP-tagged UNC80 (mouse) truncated at L2654 (residues 1–2653) (mouse) (UniProt Q8BLN6). The description is as above.
The target of assay [3] is T1, GFP-tagged truncated UNC80 (mouse), aa 300–1700 (mouse) (UniProt Q8BLN6).
T1 sequence: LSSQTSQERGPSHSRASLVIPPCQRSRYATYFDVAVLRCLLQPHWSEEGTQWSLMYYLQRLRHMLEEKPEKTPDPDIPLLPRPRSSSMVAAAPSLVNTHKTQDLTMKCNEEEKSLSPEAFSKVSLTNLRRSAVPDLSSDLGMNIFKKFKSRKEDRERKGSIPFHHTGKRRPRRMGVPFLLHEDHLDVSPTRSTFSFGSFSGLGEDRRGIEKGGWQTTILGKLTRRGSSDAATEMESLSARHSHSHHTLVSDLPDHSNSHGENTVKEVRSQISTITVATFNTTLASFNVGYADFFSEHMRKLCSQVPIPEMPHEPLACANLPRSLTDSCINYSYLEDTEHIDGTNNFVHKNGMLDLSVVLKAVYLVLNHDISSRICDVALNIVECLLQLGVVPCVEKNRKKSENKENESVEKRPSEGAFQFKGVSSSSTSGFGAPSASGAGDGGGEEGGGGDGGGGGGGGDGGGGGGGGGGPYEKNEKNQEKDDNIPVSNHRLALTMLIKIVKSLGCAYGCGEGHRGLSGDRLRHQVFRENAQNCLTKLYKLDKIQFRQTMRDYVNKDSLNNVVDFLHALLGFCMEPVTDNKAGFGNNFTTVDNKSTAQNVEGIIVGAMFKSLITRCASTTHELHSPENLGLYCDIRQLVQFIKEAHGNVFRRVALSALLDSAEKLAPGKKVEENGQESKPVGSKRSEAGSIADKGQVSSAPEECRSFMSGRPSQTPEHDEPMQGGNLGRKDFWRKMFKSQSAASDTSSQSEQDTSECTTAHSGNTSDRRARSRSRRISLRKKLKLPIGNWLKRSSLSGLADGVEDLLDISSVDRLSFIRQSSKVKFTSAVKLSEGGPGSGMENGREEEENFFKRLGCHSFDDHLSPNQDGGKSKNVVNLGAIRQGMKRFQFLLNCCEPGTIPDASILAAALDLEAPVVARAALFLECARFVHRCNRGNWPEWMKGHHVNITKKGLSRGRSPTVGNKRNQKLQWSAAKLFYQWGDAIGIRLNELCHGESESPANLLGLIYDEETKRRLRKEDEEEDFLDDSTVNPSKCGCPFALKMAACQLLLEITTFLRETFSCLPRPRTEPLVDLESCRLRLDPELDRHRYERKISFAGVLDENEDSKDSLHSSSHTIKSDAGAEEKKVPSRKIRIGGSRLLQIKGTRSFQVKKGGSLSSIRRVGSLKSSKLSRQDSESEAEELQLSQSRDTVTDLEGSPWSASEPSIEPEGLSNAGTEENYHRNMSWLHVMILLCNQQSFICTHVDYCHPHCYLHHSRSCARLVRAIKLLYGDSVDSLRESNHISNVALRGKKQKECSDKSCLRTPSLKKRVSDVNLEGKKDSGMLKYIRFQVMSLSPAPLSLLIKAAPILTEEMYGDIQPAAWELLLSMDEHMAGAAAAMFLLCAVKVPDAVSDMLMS
In words: co-IP; HEK293T co-transfected with NALCN and GFP-tagged UNC80 constructs; IP with anti-GFP, blot anti-NALCN; IP buffer 50 mM Tris-HCl pH 7.4, 150 mM NaCl, 1% NP-40, 1 mM EDTA; 4 °C (Fig. 5a).

Assay [4] deals with T2, GFP-tagged UNC80 (mouse) truncated, residues 1–1266 (R1266*) (mouse) (UniProt Q8BLN6).
T2 sequence: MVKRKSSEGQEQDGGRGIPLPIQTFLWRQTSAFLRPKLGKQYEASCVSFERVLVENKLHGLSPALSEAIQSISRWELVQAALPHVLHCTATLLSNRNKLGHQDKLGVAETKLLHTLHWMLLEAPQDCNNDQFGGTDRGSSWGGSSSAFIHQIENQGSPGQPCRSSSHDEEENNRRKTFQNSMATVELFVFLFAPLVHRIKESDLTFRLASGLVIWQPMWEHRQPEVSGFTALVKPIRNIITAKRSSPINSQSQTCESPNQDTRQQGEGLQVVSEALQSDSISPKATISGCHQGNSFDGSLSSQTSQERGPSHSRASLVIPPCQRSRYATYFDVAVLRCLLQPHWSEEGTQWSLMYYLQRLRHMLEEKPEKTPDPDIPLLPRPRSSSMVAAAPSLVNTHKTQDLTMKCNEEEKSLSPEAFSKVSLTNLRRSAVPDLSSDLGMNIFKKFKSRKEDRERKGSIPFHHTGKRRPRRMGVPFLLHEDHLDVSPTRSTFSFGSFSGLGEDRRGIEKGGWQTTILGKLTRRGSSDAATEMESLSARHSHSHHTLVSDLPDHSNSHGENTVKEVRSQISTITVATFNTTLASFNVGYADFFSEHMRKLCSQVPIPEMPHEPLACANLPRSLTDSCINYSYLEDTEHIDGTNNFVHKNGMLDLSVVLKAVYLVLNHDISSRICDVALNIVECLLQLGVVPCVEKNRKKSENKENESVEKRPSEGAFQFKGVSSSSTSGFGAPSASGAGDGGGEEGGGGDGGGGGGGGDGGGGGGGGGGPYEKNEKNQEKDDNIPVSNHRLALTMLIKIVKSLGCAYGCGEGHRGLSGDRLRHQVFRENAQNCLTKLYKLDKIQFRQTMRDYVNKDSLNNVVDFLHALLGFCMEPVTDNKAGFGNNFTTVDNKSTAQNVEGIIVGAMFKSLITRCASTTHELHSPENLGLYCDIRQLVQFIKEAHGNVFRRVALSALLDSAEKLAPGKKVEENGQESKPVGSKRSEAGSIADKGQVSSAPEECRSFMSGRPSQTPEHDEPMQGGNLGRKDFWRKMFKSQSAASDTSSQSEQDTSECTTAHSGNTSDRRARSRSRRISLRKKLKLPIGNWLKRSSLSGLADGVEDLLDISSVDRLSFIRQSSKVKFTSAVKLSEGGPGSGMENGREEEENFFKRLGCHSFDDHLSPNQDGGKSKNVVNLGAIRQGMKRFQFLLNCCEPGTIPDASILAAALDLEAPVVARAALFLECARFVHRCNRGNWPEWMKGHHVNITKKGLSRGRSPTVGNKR
In words: co-IP; HEK293T co-transfected with NALCN or UNC79 and GFP-tagged UNC80 constructs; IP with anti-GFP, blot anti-NALCN or anti-UNC79; RIPA buffer (IP buffer with 0.5% deoxycholate and 0.1% SDS); 4 °C (Fig. 8a-c, f, g).

Assay [5] has as its target NALCN fused with a GFP-HA-6xHis triple tag (knock-in mouse) (mouse (endogenous, knock-in mouse brain)) (UniProt Q8BXR5). Briefly: affinity depletion; adult brain lysate of NALCN-GFP-HA-His knock-in mice (300 mM NaCl, 20 mM HEPES pH 8.0, 1% CHAPS); NALCN depleted with nickel beads, then with agarose-conjugated anti-GFP, 4 °C; lysates before and after depletion blotted for NALCN, UNC79, UNC80.

As to “NALCN (rat), wild type, non-tagged (from UniProt Q6Q760 1-1738)”, the binding result in assay [1], in assay [2] and in assay [3] was “binds” throughout.

On to “UNC79 (mouse), wild type, non-tagged (from UniProt Q0KK59 1-2596)”, for which the binding entry in assay [1] is recorded as “binds”; in assay [2], “no binding”; in assay [4], “no binding”.

Take “UNC80, endogenous, mouse brain (from UniProt Q8BLN6-1 1-3326)”: in assay [5], the binding result is listed as “binds”.

These data come from article PMC7335163.
